Experimental data: ChEMBL document CHEMBL1961873, “Compounds: GSK PKIS; Assays: Nanosyn kinase panel” (2012)
For part of these data: What follows is the remainder of the data, with few or none of the strong results. Only a part is listed here, and it is no random draw.

How the values were obtained:
[1] = target: T1, Serine/threonine-protein kinase D2 (Homo sapiens) (UniProt Q9BZL6); settings: at 1 µM;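 note: mean value of PRKD2 inhibition, from the GSK PKIS screening panel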
T1 sequence (whole entry): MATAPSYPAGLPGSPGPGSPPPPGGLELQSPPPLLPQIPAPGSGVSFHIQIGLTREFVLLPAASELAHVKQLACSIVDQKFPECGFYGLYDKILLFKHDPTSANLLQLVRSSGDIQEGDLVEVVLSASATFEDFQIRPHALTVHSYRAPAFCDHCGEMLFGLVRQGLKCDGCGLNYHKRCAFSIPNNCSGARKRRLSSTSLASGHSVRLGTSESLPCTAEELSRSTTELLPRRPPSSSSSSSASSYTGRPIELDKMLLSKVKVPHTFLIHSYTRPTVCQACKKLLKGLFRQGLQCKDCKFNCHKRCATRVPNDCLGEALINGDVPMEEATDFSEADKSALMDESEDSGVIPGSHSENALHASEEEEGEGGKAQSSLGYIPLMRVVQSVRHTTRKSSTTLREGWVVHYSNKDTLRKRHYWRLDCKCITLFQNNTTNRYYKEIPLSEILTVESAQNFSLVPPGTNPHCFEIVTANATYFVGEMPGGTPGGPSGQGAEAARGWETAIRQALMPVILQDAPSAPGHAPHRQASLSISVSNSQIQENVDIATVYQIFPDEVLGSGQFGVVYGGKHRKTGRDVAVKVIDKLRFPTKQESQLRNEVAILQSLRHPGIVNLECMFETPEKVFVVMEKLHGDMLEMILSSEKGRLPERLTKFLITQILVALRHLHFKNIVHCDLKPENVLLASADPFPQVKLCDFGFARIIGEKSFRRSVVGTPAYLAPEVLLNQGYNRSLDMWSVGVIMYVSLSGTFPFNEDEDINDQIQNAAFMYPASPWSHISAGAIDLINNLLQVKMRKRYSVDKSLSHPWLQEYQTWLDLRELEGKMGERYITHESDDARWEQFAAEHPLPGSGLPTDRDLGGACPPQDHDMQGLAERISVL

[2] = target: T2, Serine/threonine-protein kinase D3 (Homo sapiens) (UniProt O94806); settings: at 0.1 µM
T2 sequence (whole entry): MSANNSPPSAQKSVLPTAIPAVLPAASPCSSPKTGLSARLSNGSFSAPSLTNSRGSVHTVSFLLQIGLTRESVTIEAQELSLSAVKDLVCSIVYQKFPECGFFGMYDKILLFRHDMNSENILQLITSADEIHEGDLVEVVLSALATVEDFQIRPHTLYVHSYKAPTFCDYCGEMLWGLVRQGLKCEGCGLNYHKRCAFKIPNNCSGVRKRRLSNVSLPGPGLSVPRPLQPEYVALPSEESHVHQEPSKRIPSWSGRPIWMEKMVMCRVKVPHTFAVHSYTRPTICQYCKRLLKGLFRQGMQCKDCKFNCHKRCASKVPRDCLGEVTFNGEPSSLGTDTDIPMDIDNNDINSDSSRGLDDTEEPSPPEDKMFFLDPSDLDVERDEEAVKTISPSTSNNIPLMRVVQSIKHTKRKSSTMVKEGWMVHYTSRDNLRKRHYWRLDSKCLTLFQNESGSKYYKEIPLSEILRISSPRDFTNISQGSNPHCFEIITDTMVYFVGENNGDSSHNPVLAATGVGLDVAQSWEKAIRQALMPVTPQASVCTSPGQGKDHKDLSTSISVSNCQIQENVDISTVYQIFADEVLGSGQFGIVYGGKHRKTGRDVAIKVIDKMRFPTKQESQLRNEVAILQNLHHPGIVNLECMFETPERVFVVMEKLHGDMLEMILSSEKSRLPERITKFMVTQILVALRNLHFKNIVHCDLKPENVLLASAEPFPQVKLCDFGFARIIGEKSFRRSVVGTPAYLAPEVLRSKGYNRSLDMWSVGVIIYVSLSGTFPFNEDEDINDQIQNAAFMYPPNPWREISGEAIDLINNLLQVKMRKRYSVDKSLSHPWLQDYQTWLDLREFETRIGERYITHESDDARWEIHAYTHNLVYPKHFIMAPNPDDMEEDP

[3] = target: T2, Serine/threonine-protein kinase D3 (Homo sapiens); settings: at 1 µM
[4] = target: T3, cGMP-dependent protein kinase 1 (Homo sapiens) (UniProt Q13976); settings: at 0.1 µM
T3 sequence (whole entry): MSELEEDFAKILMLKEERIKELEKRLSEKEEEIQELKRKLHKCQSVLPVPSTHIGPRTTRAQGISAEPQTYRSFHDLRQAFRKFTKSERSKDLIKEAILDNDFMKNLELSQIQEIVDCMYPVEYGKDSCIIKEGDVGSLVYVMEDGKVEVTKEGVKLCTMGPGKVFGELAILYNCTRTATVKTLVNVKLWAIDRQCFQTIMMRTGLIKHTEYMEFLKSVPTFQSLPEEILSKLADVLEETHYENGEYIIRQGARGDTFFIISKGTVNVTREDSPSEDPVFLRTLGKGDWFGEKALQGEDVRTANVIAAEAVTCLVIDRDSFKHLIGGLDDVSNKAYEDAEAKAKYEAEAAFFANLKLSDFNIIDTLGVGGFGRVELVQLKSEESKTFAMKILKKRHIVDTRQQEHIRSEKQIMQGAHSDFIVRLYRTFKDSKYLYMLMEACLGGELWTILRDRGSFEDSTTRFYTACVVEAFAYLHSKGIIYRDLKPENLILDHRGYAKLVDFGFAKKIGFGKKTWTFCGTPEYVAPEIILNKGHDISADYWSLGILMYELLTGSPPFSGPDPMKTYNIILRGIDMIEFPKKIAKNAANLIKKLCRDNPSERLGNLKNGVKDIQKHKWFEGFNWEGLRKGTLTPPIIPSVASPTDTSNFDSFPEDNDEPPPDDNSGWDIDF

[5] = target: T3, cGMP-dependent protein kinase 1 (Homo sapiens); settings: at 1 µM
[6] = target: T4, cGMP-dependent protein kinase 2 (Homo sapiens) (UniProt Q13237); settings: at 0.1 µM
T4 sequence (whole entry): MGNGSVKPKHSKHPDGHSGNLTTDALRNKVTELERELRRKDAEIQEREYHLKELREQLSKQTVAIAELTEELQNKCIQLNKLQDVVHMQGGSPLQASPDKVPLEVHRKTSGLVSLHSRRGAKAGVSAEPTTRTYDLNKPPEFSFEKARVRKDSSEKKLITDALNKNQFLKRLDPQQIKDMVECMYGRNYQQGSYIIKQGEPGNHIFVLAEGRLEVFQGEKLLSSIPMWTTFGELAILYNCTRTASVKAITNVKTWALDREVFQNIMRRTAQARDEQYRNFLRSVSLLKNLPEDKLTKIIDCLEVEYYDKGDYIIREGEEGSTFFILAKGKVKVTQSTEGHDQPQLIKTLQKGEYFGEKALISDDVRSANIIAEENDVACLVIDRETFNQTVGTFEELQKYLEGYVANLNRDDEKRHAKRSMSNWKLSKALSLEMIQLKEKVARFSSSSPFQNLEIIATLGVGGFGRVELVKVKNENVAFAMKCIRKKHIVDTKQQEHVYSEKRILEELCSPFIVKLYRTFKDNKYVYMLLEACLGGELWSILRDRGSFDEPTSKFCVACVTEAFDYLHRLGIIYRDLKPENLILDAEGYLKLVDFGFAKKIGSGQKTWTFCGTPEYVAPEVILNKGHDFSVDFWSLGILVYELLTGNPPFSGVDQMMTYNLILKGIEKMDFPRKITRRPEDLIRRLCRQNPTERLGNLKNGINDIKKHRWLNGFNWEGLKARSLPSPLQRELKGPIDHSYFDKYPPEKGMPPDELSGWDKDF

[7] = target: T4, cGMP-dependent protein kinase 2 (Homo sapiens); settings: at 1 µM
[8] = target: T5, cAMP-dependent protein kinase catalytic subunit PRKX (Homo sapiens) (UniProt P51817); settings: at 0.1 µM
T5 sequence (whole entry): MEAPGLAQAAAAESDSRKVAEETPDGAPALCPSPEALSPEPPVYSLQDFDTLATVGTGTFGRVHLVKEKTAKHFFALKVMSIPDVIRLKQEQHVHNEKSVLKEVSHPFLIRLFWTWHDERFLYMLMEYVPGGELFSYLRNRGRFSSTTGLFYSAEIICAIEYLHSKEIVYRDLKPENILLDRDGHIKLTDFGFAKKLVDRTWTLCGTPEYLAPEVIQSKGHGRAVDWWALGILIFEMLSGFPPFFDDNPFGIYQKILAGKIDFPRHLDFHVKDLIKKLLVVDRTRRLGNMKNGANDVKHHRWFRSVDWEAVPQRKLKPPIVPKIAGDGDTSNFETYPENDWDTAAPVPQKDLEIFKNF

[9] = target: T5, cAMP-dependent protein kinase catalytic subunit PRKX (Homo sapiens); settings: at 1 µM
[10] = target: Rho-associated protein kinase 1 (Homo sapiens) (UniProt Q13464); settings: at 0.1 µM;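 note: values are mean percent inhibition of ROCK1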
UniProt Q13464, sequence (Q13464 whole entry, looked up): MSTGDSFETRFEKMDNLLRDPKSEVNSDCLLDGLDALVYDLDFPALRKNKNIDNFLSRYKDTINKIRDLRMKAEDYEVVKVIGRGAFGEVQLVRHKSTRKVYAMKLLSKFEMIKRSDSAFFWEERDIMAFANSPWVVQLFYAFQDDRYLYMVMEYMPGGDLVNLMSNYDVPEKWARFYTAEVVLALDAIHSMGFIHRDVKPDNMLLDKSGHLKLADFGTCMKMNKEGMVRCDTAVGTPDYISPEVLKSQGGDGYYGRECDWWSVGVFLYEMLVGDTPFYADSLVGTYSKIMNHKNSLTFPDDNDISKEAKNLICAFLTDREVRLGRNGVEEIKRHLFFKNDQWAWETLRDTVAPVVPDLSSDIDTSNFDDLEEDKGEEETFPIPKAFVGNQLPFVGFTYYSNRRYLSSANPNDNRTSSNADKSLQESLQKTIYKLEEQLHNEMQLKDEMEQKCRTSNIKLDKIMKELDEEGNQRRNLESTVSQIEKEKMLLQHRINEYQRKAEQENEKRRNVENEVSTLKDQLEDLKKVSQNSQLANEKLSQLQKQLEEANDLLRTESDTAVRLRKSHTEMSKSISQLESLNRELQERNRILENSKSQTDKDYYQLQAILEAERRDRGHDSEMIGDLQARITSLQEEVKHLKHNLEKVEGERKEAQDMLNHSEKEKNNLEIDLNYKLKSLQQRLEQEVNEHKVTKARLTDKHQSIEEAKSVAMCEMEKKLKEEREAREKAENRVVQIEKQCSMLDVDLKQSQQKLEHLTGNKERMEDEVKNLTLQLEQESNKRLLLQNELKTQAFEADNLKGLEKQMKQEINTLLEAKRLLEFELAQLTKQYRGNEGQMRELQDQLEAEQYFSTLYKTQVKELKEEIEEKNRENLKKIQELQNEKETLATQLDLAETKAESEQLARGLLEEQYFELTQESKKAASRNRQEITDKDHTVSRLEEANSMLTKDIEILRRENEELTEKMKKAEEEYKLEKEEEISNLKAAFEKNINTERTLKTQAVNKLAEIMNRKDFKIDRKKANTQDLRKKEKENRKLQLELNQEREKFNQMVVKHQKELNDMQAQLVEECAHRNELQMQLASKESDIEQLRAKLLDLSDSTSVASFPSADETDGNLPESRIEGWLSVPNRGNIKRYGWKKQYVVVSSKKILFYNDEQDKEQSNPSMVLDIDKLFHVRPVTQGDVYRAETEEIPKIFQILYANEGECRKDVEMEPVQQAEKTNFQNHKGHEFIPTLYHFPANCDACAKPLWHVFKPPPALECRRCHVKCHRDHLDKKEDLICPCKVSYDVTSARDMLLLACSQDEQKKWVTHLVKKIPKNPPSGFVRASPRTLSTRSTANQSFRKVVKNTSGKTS

Structure (SMILES)	inhibition [1]	inhibition [2]	inhibition [3]	inhibition [4]	inhibition [5]	inhibition [6]	inhibition [7]	inhibition [8]	inhibition [9]	inhibition [10]
O=C1NC(=O)C(c2ccccc2Cl)=C1Nc1cc(Cl)c(O)c(Cl)c1	1.74%	3.47%	2.15%	1.42%	2.3%	-0.39%	2.34%	1.23%	3.25%	0.56%
NC(=O)CCc1ccccc1Oc1nccc(-c2c(-c3ccc(F)cc3)ncn2C2CCNCC2)n1	0.47%	0.26%	-0.78%	-0.14%	0.21%	0.15%	0.97%	0.5%	0.49%	0.32%
Fc1ccc(-c2ncn(C3CCNCC3)c2-c2ccnc(Oc3cccc(C(F)(F)F)c3)n2)cc1	4.6%	4.8%	5.25%	4.91%	3.98%	3.5%	3.81%	2.8%	3.28%	2.56%
Fc1ccc(-c2ncn(C3CCNCC3)c2-c2ccnc(Oc3ccc(Cl)cc3)n2)cc1	1.15%	0.31%	1.49%	1.06%		0.7%	1.44%	0.98%	1.04%	1.45%
O=C1NC(=O)C(c2ccccc2)=C1Nc1ccccc1	6.11%	5.73%	6.24%	3.1%	7.14%	3.35%	5.15%	3.03%	4.28%	0.28%
CS(=O)(=O)c1ccc(Oc2nccc(-c3c(-c4ccc(F)cc4)ncn3C3CCNCC3)n2)cc1	2.39%	4.58%	6.17%	2.78%	3.05%	2.81%	2.75%	1.52%	2.83%	2.48%
Fc1ccc(-c2ncn(C3CCNCC3)c2-c2ccnc(Oc3cccc(F)c3)n2)cc1	5.29%	4.52%	6.17%	3.66%	7.09%	3.17%	4.69%		2.08%	3.18%
COc1ccccc1C1=C(Nc2ccccc2)C(=O)NC1=O	3.26%	2.78%	3.43%	2.15%	3.55%	1.63%	5.24%	2.27%	2.75%	-0.62%
Fc1ccc(Oc2nccc(-c3c(-c4ccc(F)cc4)ncn3C3CCNCC3)n2)cc1	-2.14%	1.07%	0%	4.51%	6.32%	3.55%	5.41%	3.35%	5%	1.58%
CC(C)(C)c1ccc(Oc2nccc(-c3c(-c4ccc(F)cc4)ncn3C3CCNCC3)n2)cc1	8.82%	4.02%	7.89%	2.83%	1.94%	2.15%	3.52%	1.07%	2.76%	2.14%
COc1ccccc1Oc1nccc(-c2c(-c3ccc(F)cc3)ncn2C2CCNCC2)n1	10.8%	5.31%	12.1%	3.13%	2.97%	2.29%	4.69%	2.58%	2.39%	2.78%
O=C(O)c1ccc(Oc2nccc(-c3c(-c4ccc(F)cc4)ncn3C3CCNCC3)n2)cc1	3.6%	4.91%	5.35%	5.36%	6.26%	3.56%	6.47%	3.24%	3.39%	2.05%
O=C1NC(=O)C(c2cccc([N+](=O)[O-])c2)=C1Nc1cc(Cl)c(O)c(Cl)c1	2.21%	1.6%	3.53%	2.61%	1.99%	2.1%	3.19%	3.28%	2.86%	0.34%
Cc1cccc(Oc2nccc(-c3c(-c4ccc(F)cc4)ncn3C3CCNCC3)n2)c1C	14.2%	5.42%	15.4%	2.47%	1.81%	0.96%	1.79%	1.88%	2.55%	1.8%
